# Data taken from the supplement of paper PMC12355420.
# Some of the results follow. Cut-off read from the data, not from the text of the source: active = 0.5 or less and inactive = the rest. Most values come without repeats; read them as rough.
# Key:
# Settings in all cases: 50 µM; 24 h
# [1] = tested on: HeLa VPS33A reporter cells; test: relative cell viability (CellMask signal) vs DMSO (fraction of DMSO); higher = less cytotoxic;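 note: primary screen of an FDA-approved drug library in HeLa reporter cells in 96-well format, CellMask signal normalized to DMSO-treated wells set as 1, under 0.5 deemed highly cytotoxic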
# [2] = tested on: HeLa VPS33A R498W KI + HA-SDC1-FLAG; test: relative GAG core protein HA-SDC1 amount per cell number vs DMSO (fraction of DMSO); higher = more SDC1 (GAG core protein);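 note: HA-SDC1 level read out by In-Cell Western staining with an anti-HA antibody against the N-terminal tag, screening FDA-approved library drugs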
# [3] = tested on: HeLa VPS33A KO + NLuc-VPS33A R498W; test: relative mutant VPS33A R498W amount (NanoLuc luminescence) vs DMSO (fraction of DMSO); HeLa model of a glycosaminoglycan (GAG) storage disease; KI is knock-in and KO knock-out; SDC1 is syndecan 1; higher = higher mutant VPS33A level;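 note: screen of an FDA-approved drug library, NanoLuc luminescence read after lysing the treated cells, taken as a measure of mutant VPS33A protein stability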
SMILES,relative cell viability [1],relative GAG core protein HA-SDC1 amount per cell number [2],relative mutant VPS33A R498W amount [3]
Cc1nc(Nc2ncc(C(=O)Nc3c(C)cccc3Cl)s2)cc(N2CCN(CCO)CC2)n1 [Dasatinib Monohydrate],1.04,active: 0.423,0.0581
CCc1ccc(CCOc2ccc(CC3SC(=O)NC3=O)cc2)nc1 (configuration not stated) [Pioglitazone],0.927,inactive: 1.06,1.26
CC=CC(=O)N(CC)c1ccccc1C [Crotamiton],1.04,inactive: 0.807,1.29
CCOC(=O)CC(=O)N1CCSC1COc1ccccc1OC (configuration not stated) [Moguisteine],0.91,inactive: 0.991,1.56
CO[C@H]1O[C@@H]2O[C@@]3(C)CC[C@H]4[C@H](C)CC[C@@H]([C@H]1C)[C@@]24OO3 [Artemether*],0.778,active: 0.369,0.718
O=C1[C@H](CC[C@H](O)c2ccc(F)cc2)[C@@H](c2ccc(O)cc2)N1c1ccc(F)cc1 [Ezetimibe],1.05,active: 0.433,0.559
CCC(=O)O[C@]1(C(=O)SCF)[C@H](C)C[C@H]2[C@@H]3C[C@H](F)C4=CC(=O)C=C[C@]4(C)[C@@]3(F)[C@@H](O)C[C@@]21C [Fluticasone propionate],1.03,inactive: 1.04,1.42
CC(C)(C)OC(=O)N[C@H]1CCCCC/C=C\[C@@H]2C[C@@]2(C(=O)NS(=O)(=O)C2CC2)NC(=O)[C@@H]2C[C@@H](OC(=O)N3Cc4cccc(F)c4C3)CN2C1=O [Danoprevir (RG7227)],0.619,inactive: 0.583,0.881
Cc1c(NC(=O)c2cccnc2)c(=O)n(-c2ccccc2)n1C [Nifenazone],1.11,inactive: 1.13,0.867
